Experimental data published in PubChem BioAssay AID1454 (National Center for Advancing Translational Sciences (NCATS), 2008).
Among all 130,000 compounds or so, about 550 (0.42%) were called active. Inconclusive results, whose numbers are uncertain, are shown with a selection of clear calls. The call rests on the fitted dose curve; in most records, active means well fitted inhibition curve with a large enough effect; inconclusive means small, poorly fitted or top-dose-only effect, or effect the other way; inactive means flat fitted curve, though single readings scatter. No potency is given beside an inconclusive call; the fits are too rough.

experiment: qHTS Assay for Inhibitors of the ERK Signaling Pathway using a Homogeneous Screening Assay; Stimulation with EGF; settings: HEK293-V1b, EGF-stimulated phospho-ERK AlphaScreen; further: nearly all actives have a fitted effect of over 55% in size
Method in brief: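 Stably V1b-transfected HEK293 cells; 30 min compound, then EGF 25 nM final for 5 min at 37C; 10 min lysis; phospho-ERK by AlphaScreen after 5 hr beads at room temperature.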
Potency means the concentration at half of the fitted maximal effect; tags describe the fitted curve by direction and shape.

Row | Compound | Potency
1 | Cc1noc(C)c1C(=O)N1CCC2(CCN(Cc3nccs3)CC2)CC1 | inactive
2 | c1ccc(Oc2cc(-c3ccccc3)nc(-c3ccccc3)n2)cc1 | inconclusive [activator, partial curve]
3 | Cn1c(SCC(=O)c2ccc3c(c2)Cc2ccccc2-3)nnc1-c1cccc(N)c1 | inactive
4 | O=[N+]([O-])c1cccc(C(=S)N2CCN(c3ccccc3F)CC2)c1 | inconclusive [inhibitor, single point]
5 | Cc1cccc(C2C3=C(CCCC3=O)N=C3c4ccccc4C(=O)C32)c1 (centres undefined) | inconclusive [inhibitor, full curve, poor fit]
6 | COc1ccc(OC)c(N/C(C)=C/C(=O)c2ccccc2)c1 | inconclusive [inhibitor, partial curve]
7 | O=[N+]([O-])c1ccc(Nc2c3ccccc3nc3ccccc23)cc1 | inconclusive [inhibitor, single point]
8 | CSc1cccc(NC(=O)/C=C/c2cccc(Cl)c2)c1 | inactive
9 | CCc1cc2c3c(c(=O)oc2cc1O)CCCC3 | inconclusive [activator, single point]
10 | C=CCn1c(C)cc(C(=O)Cn2nc(C(=O)O)c3ccccc3c2=O)c1C | inconclusive [inhibitor, single point]
11 | COc1ccc(O)c(C(=O)/C=C/c2cc3ccccc3o2)c1 | active: 25.1 µM
12 | O=C1C2CC=CCC2C(=O)N1c1ccc(NCCc2ccc(Cl)cc2)c([N+](=O)[O-])c1 (centres undefined) | inconclusive [inhibitor, single point]
13 | Nc1nc(-c2ccccc2)c(-c2ccc([N+](=O)[O-])cc2)s1 | active: 25.1 µM
14 | COc1ccc(-c2nc3c4ccccc4ccn3c2CN2CCCCC2)cc1 | inconclusive [inhibitor, single point]
15 | CCCn1nc(NC(=O)c2cccs2)c2cc3ccc(C)cc3nc21 | inconclusive [activator, single point]
16 | COc1ccc(Nc2oc(COc3ccc(C)cc3)nc2C#N)cc1 | inconclusive [inhibitor, single point]
17 | C=CCC1Cc2c(cccc2[N+](=O)[O-])C(CC=C)N1 (centres undefined) | inconclusive [inhibitor, partial curve, poor fit]
18 | COc1ccc(/C=N/Nc2nc(-c3cccnc3)nc3ccccc23)cc1OC | inconclusive [inhibitor, partial curve, poor fit]
19 | Cc1csc(Nc2ccccc2)[n+]1C | inconclusive [inhibitor, single point]
